Measurements published in the supplement of paper PMC10037445.
The full ranking holds about 2,900 compounds; the median of “NF-kB SEAP reporter activity, fold change vs agonist alone” is about 0.99, and the highest 2% start at about 2.6. Some of the results follow.

Columns and labels:
RAW-Dual [1] = test: NF-kB SEAP reporter activity, fold change vs agonist alone; higher = enhanced NF-kB activity; conditions: library stock concentration (final ~1000-fold dilution): 10 mM
How it was run: (§1)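 Cytotoxic wells were those whose IncuCyte confluency was below 70% of agonist controls in both mask sets. The cells were RAW-Dual macrophages at 50,000 cells/well in DMEM on 384-well plates, dosed with 50 nL of library stock by pin tool, stimulated with a PRR agonist 1 h later, and kept at 37 °C, 5% CO2 for 20 hours. IRF and NF-κB reporter activity, as fold change over agonist-alone wells, came from supernatant read by QuantiLuc luminescence and QuantiBlue absorbance, respectively.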

RAW-Dual [2] = test: NF-kB SEAP reporter activity, fold change vs agonist alone; cytotoxicity flag (confluency mask): not cytotoxic; higher = enhanced NF-kB activity
How it was run: as §1

RAW-Dual [3] = test: NF-kB SEAP reporter activity, fold change vs agonist alone; cytotoxicity flag (confluency mask): cytotoxic (confluency <70% of control); higher = enhanced NF-kB activity
How it was run: as §1

[4] = cytotoxicity flag (confluency mask): not cytotoxic, agonist: Imiquimod (TLR7) […]
[5] = cytotoxicity flag (confluency mask): not cytotoxic, agonist: MPLA (TLR4) […]
[6] = agonist: ODN 1826 (TLR9) 0.5 ug/mL
[7] = agonist: Pam2CSK4 (TLR2/6) 0.1 ug/mL
[8] = agonist: Pam3CSK4 (TLR2/1) 0.1 ug/mL

How did the “NF-kB SEAP reporter activity” value (RAW-Dual [1]; [4]) turn out when `CC=CCC(C)C(O)C1C(=O)NC(CC)C(=O)N(C)CC(=O)N(C)C(CC(C)C)C(=O)NC(C(C)C)C(=O)N(C)C(CC(C)C)C(=O)NC(C)C(=O)NC(C)C(=O)N(C)C(CC(C)C)C(=O)N(C)C(CC(C)C)C(=O)N(C)C(C(C)C)C(=O)N1C` (stereo not drawn) was run?
Its value is 1.83.

What about the “NF-kB SEAP reporter activity” value (RAW-Dual [1]; [5]) of the same compound?
The value was 1.62.

With `CC=CCC(C)C(O)C1C(=O)NC(CC)C(=O)N(C)CC(=O)N(C)C(CC(C)C)C(=O)NC(C(C)C)C(=O)N(C)C(CC(C)C)C(=O)NC(C)C(=O)NC(C)C(=O)N(C)C(CC(C)C)C(=O)N(C)C(CC(C)C)C(=O)N(C)C(C(C)C)C(=O)N1C` (stereo not drawn) (library stock concentration (final ~1000-fold dilution): 10 mM) as the compound, how does the “NF-kB SEAP reporter activity” value (RAW-Dual [2]; agonist: LPS (TLR4) 0.1 ug/mL) read?
The value was 1.87.

And the “NF-kB SEAP reporter activity” value (RAW-Dual [2]; [6])?
The value was 1.27.

And the “NF-kB SEAP reporter activity” value (RAW-Dual [2]; [7])?
The value was 0.462.

What about the “NF-kB SEAP reporter activity” value (RAW-Dual [2]; [8]) of the same compound?
Its value is 0.948.

With `COc1ccc(C(NC(=O)c2cnc(-c3cccnn3)nc2O)c2ccc(OC)cc2)cc1` (library stock concentration (final ~1000-fold dilution): 10 mM) as the compound, how does the “NF-kB SEAP reporter activity” value (RAW-Dual [2]; agonist: LPS (TLR4) 0.1 ug/mL) read?
Its value is 2.9.

And the “NF-kB SEAP reporter activity” value (RAW-Dual [2]; [6])?
The value was 0.861.

What about the “NF-kB SEAP reporter activity” value (RAW-Dual [2]; [7]) of the same compound?
Its value is 0.898.

And the “NF-kB SEAP reporter activity” value (RAW-Dual [2]; [8])?
The value was 1.02.

With `COc1ccc(C(NC(=O)c2cnc(-c3cccnn3)nc2O)c2ccc(OC)cc2)cc1` as the compound, how does the “NF-kB SEAP reporter activity” value (RAW-Dual [1]; [4]) read?
The value was 0.974.

And the “NF-kB SEAP reporter activity” value (RAW-Dual [1]; [5])?
Its value is 1.03.

For `CCOc1cc(C(CS(C)(=O)=O)N2C(=O)c3cccc(NC(C)=O)c3C2=O)ccc1OC` (stereo not drawn), which “NF-kB SEAP reporter activity” value (RAW-Dual [1]; [4]) is on record?
Its value is 1.12.

And the “NF-kB SEAP reporter activity” value (RAW-Dual [1]; [5])?
The value was 1.26.

With `CCOc1cc(C(CS(C)(=O)=O)N2C(=O)c3cccc(NC(C)=O)c3C2=O)ccc1OC` (stereo not drawn) (library stock concentration (final ~1000-fold dilution): 10 mM) as the compound, how does the “NF-kB SEAP reporter activity” value (RAW-Dual [2]; agonist: LPS (TLR4) 0.1 ug/mL) read?
The value was 1.59.

What about the “NF-kB SEAP reporter activity” value (RAW-Dual [2]; [6]) of the same compound?
The value was 1.87.

What about the “NF-kB SEAP reporter activity” value (RAW-Dual [2]; [7]) of the same compound?
Its value is 1.47.

And the “NF-kB SEAP reporter activity” value (RAW-Dual [2]; [8])?
The value was 1.72.

Which “NF-kB SEAP reporter activity” value (RAW-Dual [2]; agonist: LPS (TLR4) 0.1 ug/mL) does the source give for `N#CN=C(NCCCCCCOc1ccc(Cl)cc1)Nc1ccncc1` (library stock concentration (final ~1000-fold dilution): 10 mM) here?
Its value is 0.63.

What about the “NF-kB SEAP reporter activity” value (RAW-Dual [2]; [6]) of the same compound?
Its value is 0.709.

What about the “NF-kB SEAP reporter activity” value (RAW-Dual [2]; [7]) of the same compound?
The value was 0.404.

And the “NF-kB SEAP reporter activity” value (RAW-Dual [2]; [8])?
The value was 0.467.

Which results are given for `N#CN=C(NCCCCCCOc1ccc(Cl)cc1)Nc1ccncc1`?
NF-kB SEAP reporter activity (RAW-Dual [1]; [4]): 0.814; NF-kB SEAP reporter activity (RAW-Dual [1]; [5]): 0.91

Which results are given for `O=C(O)/C(S)=C/c1c[nH]c2ccc(F)cc12` (library stock concentration (final ~1000-fold dilution): 10 mM)?
NF-kB SEAP reporter activity (RAW-Dual [2]; agonist: LPS (TLR4) 0.1 ug/mL): 0.886; NF-kB SEAP reporter activity (RAW-Dual [2]; [6]): 0.864; NF-kB SEAP reporter activity (RAW-Dual [2]; [7]): 0.988; NF-kB SEAP reporter activity (RAW-Dual [2]; [8]): 0.934

With `O=C(O)/C(S)=C/c1c[nH]c2ccc(F)cc12` as the compound, how does the “NF-kB SEAP reporter activity” value (RAW-Dual [1]; [4]) read?
The value was 0.865.

What about the “NF-kB SEAP reporter activity” value (RAW-Dual [1]; [5]) of the same compound?
Its value is 1.08.

How did the “NF-kB SEAP reporter activity” value (RAW-Dual [2]; agonist: LPS (TLR4) 0.1 ug/mL) turn out when `CCNC(=O)c1noc(-c2cc(Cl)c(O)cc2O)c1-c1ccc(OC)cc1` (library stock concentration (final ~1000-fold dilution): 10 mM) was run?
The value was 0.229.

And the “NF-kB SEAP reporter activity” value (RAW-Dual [2]; [6])?
Its value is 0.227.

And the “NF-kB SEAP reporter activity” value (RAW-Dual [2]; [7])?
Its value is 0.0828.

What about the “NF-kB SEAP reporter activity” value (RAW-Dual [2]; [8]) of the same compound?
The value was 0.145.

What does the source list for `CCNC(=O)c1noc(-c2cc(Cl)c(O)cc2O)c1-c1ccc(OC)cc1`?
NF-kB SEAP reporter activity (RAW-Dual [1]; [4]): 0.165; NF-kB SEAP reporter activity (RAW-Dual [1]; [5]): 0.374

Which “NF-kB SEAP reporter activity” value (RAW-Dual [1]; cytotoxicity flag (confluency mask): cytotoxic (confluency <70% of control), agonist: MPLA (TLR4) […]) does the source give for `Cl.Cl.Cl.Cl.Nc1cc(N)c(N)cc1N` here?
Its value is 0.202.

With `Cl.Cl.Cl.Cl.Nc1cc(N)c(N)cc1N` (library stock concentration (final ~1000-fold dilution): 10 mM) as the compound, how does the “NF-kB SEAP reporter activity” value (RAW-Dual [3]; agonist: LPS (TLR4) 0.1 ug/mL) read?
The value was 0.239.

And the “NF-kB SEAP reporter activity” value (RAW-Dual [3]; [6])?
The value was 0.175.

And the “NF-kB SEAP reporter activity” value (RAW-Dual [3]; [7])?
Its value is 0.0867.

And the “NF-kB SEAP reporter activity” value (RAW-Dual [3]; [8])?
Its value is 0.109.

Which “NF-kB SEAP reporter activity” value (RAW-Dual [1]; [4]) does the source give for `CCOc1nc2cccc(C(=O)O)c2n1Cc1ccc(-c2ccccc2-c2nc(=O)o[nH]2)cc1` here?
The value was 0.995.

And the “NF-kB SEAP reporter activity” value (RAW-Dual [1]; [5])?
The value was 0.966.

What does the source list for `CCOc1nc2cccc(C(=O)O)c2n1Cc1ccc(-c2ccccc2-c2nc(=O)o[nH]2)cc1` (library stock concentration (final ~1000-fold dilution): 10 mM)?
NF-kB SEAP reporter activity (RAW-Dual [2]; agonist: LPS (TLR4) 0.1 ug/mL): 1.38; NF-kB SEAP reporter activity (RAW-Dual [2]; [6]): 1.05; NF-kB SEAP reporter activity (RAW-Dual [2]; [7]): 1.2; NF-kB SEAP reporter activity (RAW-Dual [2]; [8]): 1.05

`Cn1ncc(Cl)c1-c1cc(C(=O)NC(CN)Cc2cccc(F)c2)sc1Cl` (stereo not drawn) was tested. Which “NF-kB SEAP reporter activity” value (RAW-Dual [1]; [4]) did it give?
The value was 1.39.

What about the “NF-kB SEAP reporter activity” value (RAW-Dual [1]; [5]) of the same compound?
Its value is 1.77.

`Cn1ncc(Cl)c1-c1cc(C(=O)NC(CN)Cc2cccc(F)c2)sc1Cl` (stereo not drawn) (library stock concentration (final ~1000-fold dilution): 10 mM) was tested. Which “NF-kB SEAP reporter activity” value (RAW-Dual [2]; agonist: LPS (TLR4) 0.1 ug/mL) did it give?
The value was 1.53.

And the “NF-kB SEAP reporter activity” value (RAW-Dual [2]; [6])?
The value was 1.27.

And the “NF-kB SEAP reporter activity” value (RAW-Dual [2]; [7])?
The value was 1.

And the “NF-kB SEAP reporter activity” value (RAW-Dual [2]; [8])?
Its value is 1.15.

Which “NF-kB SEAP reporter activity” value (RAW-Dual [1]; [4]) does the source give for `CNC(=C[N+](=O)[O-])NCCSCc1csc(CN(C)C)n1` here?
Its value is 0.919.

What about the “NF-kB SEAP reporter activity” value (RAW-Dual [1]; [5]) of the same compound?
Its value is 0.874.

What does the source list for `CNC(=C[N+](=O)[O-])NCCSCc1csc(CN(C)C)n1` (library stock concentration (final ~1000-fold dilution): 10 mM)?
NF-kB SEAP reporter activity (RAW-Dual [2]; agonist: LPS (TLR4) 0.1 ug/mL): 0.948; NF-kB SEAP reporter activity (RAW-Dual [2]; [6]): 1.02; NF-kB SEAP reporter activity (RAW-Dual [2]; [7]): 1.03; NF-kB SEAP reporter activity (RAW-Dual [2]; [8]): 1.08

How did the “NF-kB SEAP reporter activity” value (RAW-Dual [2]; agonist: LPS (TLR4) 0.1 ug/mL) turn out when `Cc1cc(Nc2cc(Cl)nc(Oc3ccc([N+](=O)[O-])cc3)n2)n[nH]1` (library stock concentration (final ~1000-fold dilution): 10 mM) was run?
Its value is 3.28.

What about the “NF-kB SEAP reporter activity” value (RAW-Dual [2]; [6]) of the same compound?
Its value is 2.32.

What about the “NF-kB SEAP reporter activity” value (RAW-Dual [2]; [7]) of the same compound?
Its value is 1.82.

What about the “NF-kB SEAP reporter activity” value (RAW-Dual [2]; [8]) of the same compound?
Its value is 2.92.

`Cc1cc(Nc2cc(Cl)nc(Oc3ccc([N+](=O)[O-])cc3)n2)n[nH]1` was tested. Which “NF-kB SEAP reporter activity” value (RAW-Dual [1]; [4]) did it give?
Its value is 1.24.

What about the “NF-kB SEAP reporter activity” value (RAW-Dual [1]; [5]) of the same compound?
The value was 2.16.

Which “NF-kB SEAP reporter activity” value (RAW-Dual [2]; agonist: LPS (TLR4) 0.1 ug/mL) does the source give for `C=CC(=O)Nc1cccc(Nc2nc(Nc3ccc(NC4CN(CCF)C4)cc3OC)ncc2C(F)(F)F)c1` (library stock concentration (final ~1000-fold dilution): 10 mM) here?
The value was 0.561.

And the “NF-kB SEAP reporter activity” value (RAW-Dual [2]; [6])?
The value was 0.536.

What about the “NF-kB SEAP reporter activity” value (RAW-Dual [2]; [7]) of the same compound?
The value was 0.359.

And the “NF-kB SEAP reporter activity” value (RAW-Dual [2]; [8])?
Its value is 0.725.

Which “NF-kB SEAP reporter activity” value (RAW-Dual [1]; [4]) does the source give for `C=CC(=O)Nc1cccc(Nc2nc(Nc3ccc(NC4CN(CCF)C4)cc3OC)ncc2C(F)(F)F)c1` here?
The value was 1.26.

What about the “NF-kB SEAP reporter activity” value (RAW-Dual [1]; [5]) of the same compound?
Its value is 1.53.

`O=C(O)CC(O)CC(O)C=Cc1c(C2CC2)nc2ccccc2c1-c1ccc(F)cc1` (stereo not drawn) (library stock concentration (final ~1000-fold dilution): 10 mM) was tested. Which “NF-kB SEAP reporter activity” value (RAW-Dual [2]; agonist: LPS (TLR4) 0.1 ug/mL) did it give?
Its value is 3.

And the “NF-kB SEAP reporter activity” value (RAW-Dual [2]; [6])?
The value was 3.

What about the “NF-kB SEAP reporter activity” value (RAW-Dual [2]; [8]) of the same compound?
The value was 3.31.

Which results are given for `CS(=O)(=O)Nc1ccc([N+](=O)[O-])cc1Oc1ccccc1` (library stock concentration (final ~1000-fold dilution): 10 mM)?
NF-kB SEAP reporter activity (RAW-Dual [2]; agonist: LPS (TLR4) 0.1 ug/mL): 1.05; NF-kB SEAP reporter activity (RAW-Dual [2]; [6]): 0.993; NF-kB SEAP reporter activity (RAW-Dual [2]; [7]): 0.937; NF-kB SEAP reporter activity (RAW-Dual [2]; [8]): 0.873
